Measured values: PubChem BioAssay (Tox21)
Values joined by “and” are separate entries in the source; they are usually repeats but may differ in a detail not shown here. Identical values can stand only once. This list was built around the results that the source calls inconclusive (neither active nor inactive); the mix of calls is not that of the screen. Potencies of inconclusive entries are doubtful fits and often do not repeat. The source holds several records for some structures; these can differ, active in one and inactive in another. Active and inactive are the calls of the source. Unless noted, calls come from the whole dose curve; as a rule, active = well fitted curve in the direction sought with a large enough effect in the repeat runs; inconclusive = weak or mixed curves; inactive = no such curve, though single readings can be large; an effect the other way counts as inactive or inconclusive. Peptide text beside a SMILES is read from it.
% is set by controls: 0 for no effect and ±100 for the full control effect; potency is the fitted concentration of half-maximal effect; tags give direction and shape of the fitted curve or compound fluorescence and quenching.

Target: Androgen receptor (Homo sapiens) (UniProt P10275)
UniProt P10275, sequence (P10275 whole entry, looked up): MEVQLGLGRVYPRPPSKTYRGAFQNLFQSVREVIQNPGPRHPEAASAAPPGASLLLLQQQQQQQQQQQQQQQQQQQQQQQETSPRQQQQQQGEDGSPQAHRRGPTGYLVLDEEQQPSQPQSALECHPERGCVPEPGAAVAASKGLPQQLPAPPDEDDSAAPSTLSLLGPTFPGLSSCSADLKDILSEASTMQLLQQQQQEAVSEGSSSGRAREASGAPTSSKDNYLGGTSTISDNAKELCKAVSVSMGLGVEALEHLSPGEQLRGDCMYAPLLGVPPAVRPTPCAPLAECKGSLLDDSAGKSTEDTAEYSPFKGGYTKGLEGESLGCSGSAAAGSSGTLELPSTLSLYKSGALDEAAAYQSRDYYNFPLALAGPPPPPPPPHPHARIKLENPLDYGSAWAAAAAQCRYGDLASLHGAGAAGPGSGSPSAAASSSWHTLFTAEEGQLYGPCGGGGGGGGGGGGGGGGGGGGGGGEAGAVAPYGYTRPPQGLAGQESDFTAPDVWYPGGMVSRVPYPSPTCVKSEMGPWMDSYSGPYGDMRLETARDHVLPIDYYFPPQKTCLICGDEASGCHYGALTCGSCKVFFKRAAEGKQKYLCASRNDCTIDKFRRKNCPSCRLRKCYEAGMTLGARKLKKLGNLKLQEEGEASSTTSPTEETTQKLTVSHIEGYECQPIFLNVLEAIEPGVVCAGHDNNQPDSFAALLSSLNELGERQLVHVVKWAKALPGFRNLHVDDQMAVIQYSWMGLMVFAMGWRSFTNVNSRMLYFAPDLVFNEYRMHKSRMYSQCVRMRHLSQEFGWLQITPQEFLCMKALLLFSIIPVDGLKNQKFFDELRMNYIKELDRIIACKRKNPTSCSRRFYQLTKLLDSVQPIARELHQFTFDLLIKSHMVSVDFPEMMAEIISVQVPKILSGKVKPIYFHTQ
Test: qHTS assay to identify small molecule agonists of the androgen receptor (AR) signaling pathway (AID 743036; active = well fitted activation curve with a large enough effect in the signal ratio in the repeat runs, with a control signal flat, not every such curve was filed as active; inconclusive = weak or mixed curves, or effect the other way; inactive = no such curve, though single readings can be large or run the other way; the % refers to the signal ratio)
Details: HEK293 AR-UAS-bla GripTite, beta-lactamase FRET ratio, 16 h; activation: at 62.4 µM (top of the series) unless noted
Method in brief: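 Quantitative HTS of the Tox21 10K library in HEK293 cells bearing a stably integrated UAS-controlled beta-lactamase reporter. Compound exposure lasted 16 h at 37C. Reporter activity was detected by FRET substrate fluorescence after 2 h at room temperature.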
With C[C@H]1O[C@@H](O[C@H]2CC[C@@]3(C)[C@H](CC[C@@H]4[C@@H]3C[C@@H](O)[C@]3(C)[C@@H](C5=CC(=O)OC5)CC[C@]43O)C2)C[C@H](O)[C@@H]1O[C@H]1C[C@H](O)[C@H](O[C@H]2C[C@H](O)[C@H](O[C@@H]3O[C@H](CO)[C@@H](O)[C@H](O)[C@H]3O)[C@@H](C)O2)[C@@H](C)O1 the activation was inconclusive: -8.9%. For Cc1cc(O)c2ccccc2c1O, the Potency was inconclusive: 30.1 µM [activator, partial curve, poor fit]. With COc1cc([C@@H]2c3cc4c(cc3[C@H](O)[C@H]3COC(=O)[C@H]23)OCO4)cc(OC)c1OC the Potency was inconclusive: 0.019 µM and the activation was inconclusive: 26.2%. With OCCN1CCN(CC/C=C2/c3ccccc3Sc3ccc(C(F)(F)F)cc32)CC1 the Potency was inconclusive: 5.35 µM [rising, partial curve, poor fit]. In the case of CC(C)(C)CC(C)(C)c1ccc(O)c(Cc2ccc(Cl)cc2Cl)c1, the Potency is reported as inconclusive: 21.3 µM.

System: not listed separately
Test: qHTS assay to identify small molecule antagonists of the androgen receptor (AR) signaling pathway using the MDA cell line - cell viability counter screen (AID 743041; note: nearly all actives have a fitted effect of over 45% in size)
Details: MDA-kb2 viability, CellTiter-Fluor, 16 h, cells co-treated with R1881 androgen agonist; viability change, negative = cytotoxic: at 70.3 µM (top of the series) unless noted
Method in brief: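 Cells were plated at 3,000 per well and left 5 h. Compounds in DMSO were then pinned in, followed by R1881. After 16 h at 37C, CellTiter-Fluor fluorescence gave viability.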
In the case of CCOc1nc2cccc(C(=O)OC(C)OC(=O)OC3CCCCC3)c2n1Cc1ccc(-c2ccccc2-c2nn[nH]n2)cc1 (stereo not given), the Potency is reported as inconclusive: 54.4 µM [cytotoxic, single point]. With Cc1cc(O)c(C(C)C)cc1Cl the Potency was “inactive”. In the case of O=C(Nc1ccc(Cl)cc1)Nc1ccc(Cl)c(C(F)(F)F)c1, the Potency is reported as active: 23.7 µM. For O=C1Cc2cc(CCN3CCN(c4nsc5ccccc45)CC3)c(Cl)cc2N1, the Potency was inconclusive: 33.5 µM [cytotoxic]. For OCCN1CCN(CC/C=C2/c3ccccc3Sc3ccc(C(F)(F)F)cc32)CC1, the Potency was inconclusive: 31.2 µM [cytotoxic, single point]. With O=C1c2ccccc2C(=O)N1SC1CCCCC1 the Potency was inconclusive: 76.9 µM [cytotoxic, partial curve, poor fit] and inconclusive: 68.6 µM [cytotoxic, single point].

System: not listed separately
Test: qHTS assay to identify small molecule antagonists of the thyroid receptor (TR) signaling pathway - cell viability counter screen (AID 743064); note: nearly all actives have a fitted effect of over 50% in size
Details: GH3.TRE-Luc viability, CellTiter-Fluor, 24 h; activity change, negative = cytotoxic: at 70.3 µM (top of the series) unless noted
Method in brief: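 Rat GH3 pituitary tumor cells stably expressing two TR response elements driving luciferase were plated, rested 4 h, then dosed with library compounds and T3 (1 nM final). After 23.5 h at 37 °C, CellTiter-Fluor was added for 30 min and fluorescence recorded.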
In the case of COC(=O)[C@H](Cc1ccccc1)NC(=O)[C@@H](N)CC(=O)O (H-Asp-Phe-OMe), the Potency is reported as “inactive”. With COCC(=O)Nc1c(I)c(C(=O)NCC(O)CO)c(I)c(C(=O)N(C)CC(O)CO)c1I (stereo not given) the Potency was “inactive”. In the case of O=CCc1ccccc1, the Potency is reported as “inactive”. For Brc1ccccc1-c1ccccc1, the Potency was inconclusive: 29.5 µM. In the case of Cc1cc(O)c(C(C)C)cc1Cl, the Potency is reported as inconclusive: 68.6 µM [cytotoxic, single point]. For Cc1cc(O)c2ccccc2c1O, the Potency was inconclusive: 33.5 µM [cytotoxic, single point]. With CN(C)[C@@H]1C(=O)C(C(N)=O)=C(O)[C@@]2(O)C(=O)C3=C(O)c4c(O)ccc(Cl)c4[C@@H](O)[C@H]3C[C@@H]12 the Potency was inconclusive: 26.6 µM [rising, partial curve]. In the case of CSCCC=O, the Potency is reported as inconclusive: 73.2 µM. In the case of COc1cc([C@@H]2c3cc4c(cc3[C@H](O)[C@H]3COC(=O)[C@H]23)OCO4)cc(OC)c1OC, the Potency is reported as inconclusive: 33.5 nM [cytotoxic, full curve] and active: 43.2 nM. In the case of O=C1OC(O)C(C(Cl)Cl)=C1Cl (stereo not given), the Potency is reported as active: 31.6 µM. For O=P(O)(O)O, the Potency was inconclusive: 78.1 µM [rising, single point]. In the case of O=C(O)c1cccnc1, the Potency is reported as inconclusive: 6.11 µM [rising, single point] and inconclusive: 610 nM [rising, single point]. For O=C1Cc2cc(CCN3CCN(c4nsc5ccccc45)CC3)c(Cl)cc2N1, the Potency was active: 16.8 µM. With COC(=O)[C@]1(C)CCC[C@@]2(C)[C@H]1CC=C1C=C(C(C)C)CC[C@@H]12 the Potency was active: 48.6 µM. With CCCCCCCOC(=O)c1ccc(O)cc1 the Potency was inconclusive: 61.2 µM [cytotoxic]. With O=C1c2ccccc2C(=O)N1SC1CCCCC1 the Potency was active: 30.6 µM and active: 21.7 µM. In the case of CCCCCCCCn1sc(Cl)c(Cl)c1=O, the Potency is reported as active: 27.3 µM. With CCc1cc(Cc2cc(CC)c(N)c(CC)c2)cc(CC)c1N the Potency was active: 68.6 µM. With CC(C)Cc1ccccc1 the Potency was inconclusive: 67.5 µM [rising, single point]. For CC(C)(C)c1cccc(C(C)(C)C)c1O, the Potency was inconclusive: 0.243 µM [rising, single point]. With c1ccc2cc3ccccc3cc2c1 the Potency was “inactive”.

System: not listed separately
Test: qHTS assay to identify small molecule antagonists of the thyroid receptor (TR) signaling pathway (AID 743065); note: nearly all actives have a fitted effect of over 55% in size
Details: GH3.TRE-Luc, T3-stimulated luciferase inhibition, 23.5 h; series mostly up to 70.3 µM
Method in brief: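 Antagonism measured as loss of luciferase signal in GH3 cells stably carrying a TRE-luciferase reporter, co-treated with compound and T3 (1 nM final) for 23.5 h at 37 C. Viability was read in the same well by CellTiter-Fluor.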
With CCCCCCCCCCCCCCNCCO the Potency was inconclusive: 26.6 µM [inhibitor, partial curve, poor fit]. In the case of Brc1ccccc1-c1ccccc1, the Potency is reported as inconclusive: 68.6 µM [inhibitor, single point]. In the case of COc1cc([C@@H]2c3cc4c(cc3[C@H](O)[C@H]3COC(=O)[C@H]23)OCO4)cc(OC)c1OC, the Potency is reported as active: 29.8 nM and active: 24.3 nM. For O=C1OC(O)C(C(Cl)Cl)=C1Cl (stereo not given), the Potency was active: 22.4 µM. In the case of CCCCCCCCn1sc(Cl)c(Cl)c1=O, the Potency is reported as active: 27.3 µM. With CCc1cc(Cc2cc(CC)c(N)c(CC)c2)cc(CC)c1N the Potency was active: 48.6 µM. For CCCCCCO, the Potency was “inactive”.
